Sequences and labels used below:
B1: GPR68, Q15743 (parent)
chain: MGNITADNSSMSCTIDHTIHQTLAPVVYVTVLVVGFPANCLSLYFGYLQIKARNELGVYLCNLTVADLFYICSLPFWLQYVLQHDNWSHGDLSCQVCGILLYENIYISVGFLCCISVDRYLAVAHPFRFHQFRTLKAAVGVSVVIWAKELLTSIYFLMHEEVIEDENQHRVCFEHYPIQAWQRAINYYRFLVGFLFPICLLLASYQGILRAVRRSHGTQKSRKDQIQRLVLSTVVIFLACFLPYHVLLLVRSVWEASCDFAKGVFNAYHFSLLLTSFNCVADPVLYCFVSETTHRDLARLRGACLAFLTCSRTGRAREAYPLGAPEASGKSGAQGEEPELLTKLHPAFQTPNSPGSGGFPTGRLA

The variants in series [1] derive from B1. Briefly: cAMP reporter score (Enrich2 score, wild type = 0); higher = more signal; HEK293T, FACS bins.
Variants of B1 are the subject of series [2]. The series is described as follows: surface expression score (Enrich2 score, wild type = 0); higher = more signal; HEK293T, FACS bins.

Scores with a large standard error are left out. The source holds two more conditions with little spread; they are left out. Read del as a deletion of the residues named and ins as an insertion between two positions. For some of these results: How much ogerin was present is not stated here.

With V162del, the cAMP reporter score in series [1] (pH 5.5) is -1.65; in series [1] (pH 6, modulator: ogerin) it was -1.02; in series [1] (pH 6.5, modulator: ogerin) it was -1.45. Moreover, the surface expression score in series [2] came out at 1.39.
In the case of W146K, the cAMP reporter score in series [1] (pH 5.5) is -1.22; in series [1] (pH 6, modulator: ogerin) it was -2.43; in series [1] (pH 6.5, modulator: ogerin), -2.15. In addition, the surface expression score in series [2] is -3.65.
With W146L, the cAMP reporter score in series [1] (pH 5.5) is -0.196; in series [1] (pH 6, modulator: ogerin), -1.12; in series [1] (pH 6.5, modulator: ogerin), -1.47.
As for W146R, the cAMP reporter score in series [1] (pH 5.5) was -0.898; in series [1] (pH 6), -0.49; in series [1] (pH 6, modulator: ogerin) it was -0.822; in series [1] (pH 6.5, modulator: ogerin) it was -0.554. Further, the surface expression score in series [2] was -0.541.
For W146I the same measures were -0.546, -1.43, -1.65, -0.618 and -1.89.
For the variant W146T, the cAMP reporter score in series [1] (pH 5.5) was -0.405; in series [1] (pH 6), -0.623; in series [1] (pH 6, modulator: ogerin), -1.39; in series [1] (pH 6.5, modulator: ogerin), -0.392. Moreover, in series [2], the surface expression score was -1.28.
As for W146G, the cAMP reporter score in series [1] (pH 5.5) is -1.17; in series [1] (pH 6), -1.36; in series [1] (pH 6, modulator: ogerin), -2.5; in series [1] (pH 6.5, modulator: ogerin), -1.09. Besides, in series [2], the surface expression score is -1.62.
As for W146H, the cAMP reporter score was -0.872 in series [1] (pH 5.5); -0.985 in series [1] (pH 6); -0.774 in series [1] (pH 6.5, modulator: ogerin).
Regarding W146P, the cAMP reporter score was -2.59 in series [1] (pH 5.5); -0.899 in series [1] (pH 6); -0.562 in series [1] (pH 6.5, modulator: ogerin). The surface expression score in series [2] was -2.32.
For W146Q, the cAMP reporter score in series [1] (pH 5.5) is -1.33; in series [1] (pH 6), -0.535; in series [1] (pH 6, modulator: ogerin), -0.648; in series [1] (pH 6.5, modulator: ogerin) it was -0.433.
As for W146N, the cAMP reporter score in series [1] (pH 5.5) was -1.15; in series [1] (pH 6, modulator: ogerin), -3.01; in series [1] (pH 6.5, modulator: ogerin), -0.424. Further, the surface expression score in series [2] was -1.69.
As for W146V, the cAMP reporter score in series [1] (pH 5.5) is -1.19; in series [1] (pH 6) it was -0.557; in series [1] (pH 6, modulator: ogerin), -0.748.
As for E164del, the cAMP reporter score in series [1] (pH 5.5) is -0.444; in series [1] (pH 6), -1.29; in series [1] (pH 6, modulator: ogerin), -0.776; in series [1] (pH 6.5, modulator: ogerin), -1.2. Also, in series [2], the surface expression score is 0.857.
With L157del, the cAMP reporter score in series [1] (pH 5.5) is -1.03; in series [1] (pH 6), -0.635; in series [1] (pH 6, modulator: ogerin), -1.16; in series [1] (pH 6.5, modulator: ogerin), -1.33. Besides, the surface expression score in series [2] was -0.686.
As to L150P, the cAMP reporter score in series [1] (pH 5.5) is 0.265; in series [1] (pH 6.5, modulator: ogerin), -1.66. Besides, the surface expression score in series [2] is -2.4.
In the case of L150S, the cAMP reporter score in series [1] (pH 5.5) is -0.35; in series [1] (pH 6, modulator: ogerin) it was -0.394; in series [1] (pH 6.5, modulator: ogerin), -1.14. The surface expression score in series [2] was -0.964.
Turning to L150T, the cAMP reporter score was -0.803 in series [1] (pH 5.5); -0.48 in series [1] (pH 6); -0.974 in series [1] (pH 6, modulator: ogerin); -1.12 in series [1] (pH 6.5, modulator: ogerin). The surface expression score in series [2] was -1.67.
Turning to L150Y, the cAMP reporter score is 0.452 in series [1] (pH 5.5) and -0.601 in series [1] (pH 6, modulator: ogerin). In addition, in series [2], the surface expression score was -1.15.
Turning to L150K, the cAMP reporter score in series [1] (pH 5.5) was -2.65; in series [1] (pH 6), -2.02; in series [1] (pH 6, modulator: ogerin) it was -1.15; in series [1] (pH 6.5, modulator: ogerin), -1.19.
For L150D, the cAMP reporter score in series [1] (pH 5.5) was -1.54; in series [1] (pH 6) it was -0.854; in series [1] (pH 6, modulator: ogerin) it was -2.28; in series [1] (pH 6.5, modulator: ogerin), -0.997. For the same variant, the surface expression score in series [2] was -2.14.
As for L150N, the cAMP reporter score in series [1] (pH 5.5) was -1.08.
On to L150I, for which the cAMP reporter score in series [1] (pH 5.5) was 0.467; in series [1] (pH 6), 0.389; in series [1] (pH 6, modulator: ogerin), 0.462; in series [1] (pH 6.5, modulator: ogerin), -0.779. Further, in series [2], the surface expression score stood at 0.846.
Take L150G: the cAMP reporter score is 0.016 in series [1] (pH 5.5); -1.04 in series [1] (pH 6); -1.32 in series [1] (pH 6, modulator: ogerin); -0.981 in series [1] (pH 6.5, modulator: ogerin). Also, the surface expression score in series [2] was -0.654.
For L150V the same measures were 0.878, 0.94, 0.606, 0.119 and 1.3.
On to L150Q, for which the cAMP reporter score is -1.14 in series [1] (pH 5.5); -1.84 in series [1] (pH 6, modulator: ogerin); -0.599 in series [1] (pH 6.5, modulator: ogerin). Moreover, the surface expression score in series [2] is -2.65.
L150C: the cAMP reporter score was -0.072 in series [1] (pH 5.5); -0.547 in series [1] (pH 6); -0.59 in series [1] (pH 6, modulator: ogerin); -0.619 in series [1] (pH 6.5, modulator: ogerin).
For L150F, the cAMP reporter score in series [1] (pH 5.5) is -0.178; in series [1] (pH 6), -0.341; in series [1] (pH 6, modulator: ogerin), -0.605; in series [1] (pH 6.5, modulator: ogerin) it was -0.665. In series [2], the surface expression score was -0.754.
L150W: the cAMP reporter score in series [1] (pH 5.5) is 3.92; in series [1] (pH 6.5, modulator: ogerin), -0.437.
Turning to L150A, the cAMP reporter score in series [1] (pH 5.5) was 0.116; in series [1] (pH 6) it was -1.08; in series [1] (pH 6, modulator: ogerin), -1.11; in series [1] (pH 6.5, modulator: ogerin) it was -1.44. Moreover, the surface expression score in series [2] was -0.305.
As for L150E, the cAMP reporter score in series [1] (pH 5.5) was -0.566; in series [1] (pH 6), 1.19; in series [1] (pH 6, modulator: ogerin), -1.3. In addition, the surface expression score in series [2] was -2.71.
Consider I163del, for which the cAMP reporter score in series [1] (pH 5.5) is -1.22; in series [1] (pH 6) it was -0.64; in series [1] (pH 6, modulator: ogerin) it was -0.916; in series [1] (pH 6.5, modulator: ogerin), -1.06. Moreover, in series [2], the surface expression score is 1.62.
With L157P, the cAMP reporter score was -0.482 in series [1] (pH 5.5) and -0.672 in series [1] (pH 6, modulator: ogerin). Further, the surface expression score in series [2] is -0.287.
With L157A, the cAMP reporter score is -1.41 in series [1] (pH 5.5); -1.14 in series [1] (pH 6); -1.28 in series [1] (pH 6, modulator: ogerin); -0.576 in series [1] (pH 6.5, modulator: ogerin). Moreover, the surface expression score in series [2] was -0.743.
On to L157V, for which the cAMP reporter score is -1.39 in series [1] (pH 5.5); -0.219 in series [1] (pH 6); 0.569 in series [1] (pH 6, modulator: ogerin); -1.64 in series [1] (pH 6.5, modulator: ogerin). Further, the surface expression score in series [2] is -0.325.
In the case of L157F, the cAMP reporter score in series [1] (pH 5.5) is 0.89; in series [1] (pH 6) it was 1.79; in series [1] (pH 6, modulator: ogerin), 0.136; in series [1] (pH 6.5, modulator: ogerin), -0.118. For the same variant, the surface expression score in series [2] turned out to be 0.328.
For L157E, the cAMP reporter score in series [1] (pH 5.5) turned out to be 0.463. In addition, the surface expression score in series [2] was -0.205.

Source of the values: the GPR68 mutational scans of Howard et al. (2025).
